Target: biotinylated human TROP2 antigen (human) (UniProt P09758)
Assay: ELISA pH 7.5 against pH 5.5

UniProt P09758, sequence (P09758 27-274): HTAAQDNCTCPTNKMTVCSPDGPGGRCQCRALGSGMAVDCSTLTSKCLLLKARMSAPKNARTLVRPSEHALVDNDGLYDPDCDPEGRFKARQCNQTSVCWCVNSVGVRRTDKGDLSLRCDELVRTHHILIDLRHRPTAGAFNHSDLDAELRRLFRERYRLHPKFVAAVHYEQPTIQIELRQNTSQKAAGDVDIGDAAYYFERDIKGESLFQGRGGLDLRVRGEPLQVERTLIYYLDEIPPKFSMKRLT

EC50 ratio (neutral pH conditions/acidic pH conditions): 1.2
B1: anti-TROP2 masked antibody MHT1008 (antibody)
heavy: GYLALKHPWPGLAENSGSGGGGSGGGGSGGGGSGGSQVQLVQSGAEVKKPGASVKVSCKASGYTFTTAGMQWVRQAPGQGLEWMGWINTHSGVPKYAEDFKGRVTISADTSTSTAYLQLSSLKSEDTAVYYCARSGFGSSYWYFDVWGQGTLVTVSSASTKGPSVFPLAPSSKSTSGGTAALGCLVKDYFPEPVTVSWNSGALTSGVHTFPAVLQSSGLYSLSSVVTVPSSSLGTQTYICNVNHKPSNTKVDKRV[human IgG1 Fc not spelt out]
light: DIQMTQSPSSLSASVGDRVTITCKASQDVSTAVAWYQQKPGKAPKLLIYSASYRYTGVPSRFSGSGSGTDFTLTISSLQPEDFAVYYCQQHYITPLTFGQGTKLEIKRTVAAPSVFIFPPSDEQLKSGTASVVCLLNNFYPREAKVQWKVDNALQSGNSQESVTEQDSKDSTYSLSSTLTLSKADYEKHKVYACEVTHQGLSSPVTKSFNRGEC
